Results from US12098186 (NATIONAL TECHNOLOGY AND ENGINEERING SOLUTIONS OF SANDIA, dated 2024).

Key:
[1] = molecular target: T1, SARS-CoV-2 receptor-binding domain (RBD) of the spike protein (SARS-CoV-2)
[2] = molecular target: T1, SARS-CoV-2 receptor-binding domain …; remark: listed apart in the source

| Binder | Kd [1] [nM] | Kd [2] [nM] |
| --- | --- | --- |
| SP1B4 monotopic nanobody construct (SP1B4 nanobody on human IgG1 Fc, Nb-huFc) (Fc fusion) EVQLQASGGGFVQPGGSLRLSCAASGRAFGIYRMGWFRQAPGKEREFVSAISGGDAGHTRYADSVKGRFTISRDNSKNTVYLQMNSLRAEDTATYYCAYWDYNGVVPFFKYWGQGTQVTVSS[sequence of human IgG1 Fc omitted] | 39.5 |  |
| SP1D9 monotopic nanobody construct (SP1D9 nanobody on human IgG1 Fc, Nb-huFc) (Fc fusion) EVQLQASGGGFVQPGGSLRLSCAASGRYDSYVRMGWFRQAPGKEREFVSAISGGGDKSTWYADSVKGRFTISRDNSKNTVYLQMNSLRAEDTATYYCANAQLGPAYDKIGYWGQGTQVTVSS[sequence of human IgG1 Fc omitted] |  | 8.9 |

Like-named read-outs stand apart in the source and are kept apart here.
